Drawing on the supplement of paper PMC2702839, this text covers phenotypic hit for 20 compounds.

Structures can show the parent of a compound that is named as a salt. This is one part of the list.

In the assay the test system is Schistosoma mansoni schistosomula. In words: phenotypic hit in primary schistosomula screen (any phenotype vs DMSO control) (binary (1 = hit, 0 = no phenotype)); higher = active (phenotype induced). The conditions noted are these: 1 µM; time (d): 7.
In the case of `COc1c(O)cc2oc3cc(O)c(CC=C(C)C)c(O)c3c(=O)c2c1CC=C(C)C` [alpha-mangostin], the phenotypic hit is inactive: 0.
For `CCOC(=O)C1(O)Oc2cc(OC)cc(OC)c2C(=O)C1c1ccccc1` (stereo not given) [2-ethoxycarbonyl-2-hydroxy-5,7-dimethoxyisoflavanone], the phenotypic hit was inactive: 0.
The figure for `CC1(C)C[C@@H]2C(=O)CC[C@H]3O[C@]3(C)CC[C@H]21` [kobusone] is inactive: 0.
As for `O=C1CCC(N2C(=O)c3ccccc3C2=O)C(=O)N1` (stereo not given) [thalidomide], the figure is inactive: 0.
On to `C[n+]1ccccc1C=NO` [Pralidoxime iodide], for which the phenotypic hit was inactive: 0.
For the compound `CC[n+]1c(-c2ccccc2)c2cc(N)ccc2c2ccc(N)cc21` [homidium bromide], the phenotypic hit is active: 1.
Regarding `CNCCCN1c2ccccc2CCc2ccccc21` [Desipramine hydrochloride], the phenotypic hit was inactive: 0.
The figure for `O=C(O)[C@]1(O)C[C@@H](O)[C@@H](O)[C@H](O)C1` [quinic acid] is inactive: 0; for `Cc1cccc(Nc2ccccc2C(=O)O)c1C` [mefenamic acid] it is inactive: 0; for `CC(N)C(=O)OC(C)(C)Cc1ccc(Cl)cc1` (stereo not given) [Alaproclate hydrochloride] it is inactive: 0.
As to `CC(C)NCC(O)c1cc(O)cc(O)c1` (stereo not given) [metaproterenol], the phenotypic hit is inactive: 0.
As for `Fc1ccc(C(c2ccccc2)(c2ccccc2F)n2ccnc2)cc1` (stereo not given) [flutrimazole], the figure is inactive: 0; as for `COc1ccc2c(c1)O[C@H]1c3ccc(OC)cc3OC[C@@H]21` [homopterocarpin], inactive: 0.
As for `CC(C)CCCC(C)C1CCC2C3CCC4CC(O)CCC4(C)C3CCC12C` (stereo not given) [cholestanol], the figure is inactive: 0; as for `COc1ccccc1N1CCN(CCCNc2cc(=O)n(C)c(=O)n2C)CC1` [Urapidil hydrochloride], inactive: 0; as for `NCCCC[C@H](NC(=O)[C@H](Cc1ccc(O)cc1)NC(=O)[C@@H](N)CCCCN)C(=O)O` [lysyl-tyrosyl-lysine acetate], inactive: 0.
The figure for `OC[C@H]1O[C@@](CO)(O[C@H]2O[C@H](CO)[C@@H](O)[C@H](O)[C@H]2O)[C@@H](O[C@H]2O[C@H](CO)[C@@H](O)[C@H](O)[C@H]2O)[C@@H]1O` [melezitose] is inactive: 0; for `CCC(=O)OCC(=O)[C@@]1(OC(=O)CC)[C@@H](C)C[C@H]2[C@@H]3CCC4=CC(=O)C=C[C@]4(C)[C@@]3(Cl)[C@@H](O)C[C@@]21C` [beclomethasone dipropionate] it is inactive: 0; for `C=C(C)/C=C1/C=CC(=O)C(C)=C1` [retusoquinone] it is inactive: 0.
In the case of `O=C(/C=C/C=C/c1ccc2c(c1)OCO2)N1CCCCC1` [piperine], the phenotypic hit was inactive: 0.
